Test [1] concerns the target human IgG (human). In words: BLI Octet, construct on Ni-NTA sensor, hIgG in solution.
Test [2] concerns the target human IgG (human). As to the kind of experiment: BLI (Octet), gEgI on Ni-NTA sensor, hIgG in solution.

Certain results were filed several times, with different values. They are shown here; other results are not. An entry can have further records. The records of an entry appear to be repeats (runs, samples, wells or individuals); one of them may be the mean.

Here are results for two substances from US20220273789A1.

Regarding “Non mutated HSV2 gEgI (HRV4) (from UniProt P89475 21-416; P06764 21-256) (receptor)”, in the test with human IgG (human) [1], the Kd is 262, 258, 163, 177 nM [lines of one column]; the Response (nm) is 0.732, 0.751, 0.831, 0.796 nm [lines of one column]; the off-rate (koff) was 0.00428, 0.00432, 0.00303, 0.00326 s⁻¹ [lines of one column].

For “Non mutated gEgI (HRV4) (from UniProt P89475 21-416; P06764 21-256) (receptor)”, in the test with human IgG (human) [2], the kon was 15900, 17600, 19300, 19500 M⁻¹ s⁻¹ [lines of one column].
